In publication PMC6212790 one finds binding signal data, which are given here for 172 sequences.

The list shows a part of the results. At the low end of the ranking, values are background and their order means little.

The experiment concerns the target T1, GST-Rok-C97-191 (UniProt O34857).
T1 sequence: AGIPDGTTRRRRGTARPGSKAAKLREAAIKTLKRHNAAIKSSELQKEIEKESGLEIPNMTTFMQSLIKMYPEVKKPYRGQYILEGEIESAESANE
The experiment in a line: protein binding microarray.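 Further: rank score from −0.5 (least bound) to 0.5 (best bound).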 The following applies: Rok is a gene silencer of Bacillus subtilis; high values mean tight binding; most listed sequences are background and not binding sites; double strand, one strand shown.
With AATCCAAC, the binding signal is -0.0501 E-score.

In turn, AGCACGGA displayed a binding signal of 0.0231 E-score.

In the case of AAGCCGCG, the binding signal is -0.245 E-score.

CTGCCTAC showed a binding signal of -0.132 E-score.

Sequence GAACGCTA yielded a binding signal of 0.137 E-score.

Sequence CATGAGAG displayed a binding signal of -0.187 E-score.

In turn, CTAACGCA registered a binding signal of 0.0173 E-score.

In turn, AGATTCGG had a binding signal of -0.0529 E-score.

With ACCCCCCA, the binding signal was -0.305 E-score.

Regarding GACGTATA, the binding signal amounted to 0.174 E-score.

With CCTAGTCC, the binding signal was -0.164 E-score.

For the sequence GGAAATTA, the binding signal was determined as 0.28 E-score.

CTTGGGGC: the binding signal is -0.262 E-score.

The sequence ACCTGACA yielded a binding signal of -0.11 E-score.

Sequence CTGAAGAC yielded a binding signal of -0.14 E-score.

AACTTATC gave a binding signal of 0.168 E-score.

The sequence ATCCTGTC showed a binding signal of -0.233 E-score.

Take GTACATGA: the binding signal worked out at 0.0885 E-score.

For GCTCAGGA, the binding signal turned out to be 0.0987 E-score.

Sequence ATCGATAG returned a binding signal of 0.32 E-score.

Sequence ATATATAA gave a binding signal of 0.449 E-score.

For GCTTCTGA, the binding signal worked out at 0.0142 E-score.

As for AAATGGTT, the binding signal was determined as 0.177 E-score.

As to AGACGAAC, the binding signal is -0.00423 E-score.

AATTCGGT: the binding signal was found to be 0.0422 E-score.

ATAGCAGG had a binding signal of -0.137 E-score.

Regarding AAATAGTT, the binding signal was determined as 0.406 E-score.

AGTCGCGA: the binding signal was -0.211 E-score.

Sequence ATCCAACA returned a binding signal of -0.119 E-score.

For AGGGTAAA, the binding signal came to 0.174 E-score.

ACAAGCAT displayed a binding signal of 0.0796 E-score.

For GAATTCCA, the binding signal was -0.0181 E-score.

AACTCTCA yielded a binding signal of 0.0933 E-score.

In turn, CGCATTTA had a binding signal of 0.074 E-score.

As to AGACGCCC, the binding signal was -0.321 E-score.

Regarding GAGTACTC, the binding signal was -0.0307 E-score.

For the sequence TACAGGAA, the binding signal amounted to 0.0535 E-score.

Sequence CGCAGAGA gave a binding signal of -0.151 E-score.

AGGGCGAT displayed a binding signal of -0.0828 E-score.

Sequence ACGAGTGG yielded a binding signal of -0.0396 E-score.

ATGGAACC: the binding signal was -0.195 E-score.

The sequence ATTGACGG returned a binding signal of -0.0344 E-score.

With TCTGTCCA, the binding signal was -0.187 E-score.

Take AATAATGG: the binding signal came out at 0.152 E-score.

Sequence AAGCAAGT came in with a binding signal of -0.0255 E-score.

CACCTACA: the binding signal is -0.0593 E-score.

ATAAAAAT: the binding signal was found to be 0.28 E-score.

Sequence GACGACAC returned a binding signal of -0.151 E-score.

In turn, ATTATCGA registered a binding signal of 0.277 E-score.

In turn, ACGACCGC came in with a binding signal of -0.0419 E-score.

The sequence TAGTCCAA came in with a binding signal of -0.101 E-score.

Sequence ATAATAAT yielded a binding signal of 0.31 E-score.

For the sequence AAAGTGCC, the binding signal is -0.118 E-score.

In the case of GGTCGTCA, the binding signal is -0.0524 E-score.

TACTCAGA yielded a binding signal of 0.152 E-score.

The sequence GGGCACAA had a binding signal of -0.0838 E-score.

In turn, CATCTGAA had a binding signal of -0.0216 E-score.

Regarding AATGACGT, the binding signal stood at 0.0906 E-score.

The sequence AGGCGAGG gave a binding signal of -0.17 E-score.

GGAAACCC displayed a binding signal of -0.165 E-score.

In the case of CGCACCCA, the binding signal was -0.0465 E-score.

As for AAGGACTT, the binding signal was -0.119 E-score.

With GAAGTCGC, the binding signal is -0.137 E-score.

For the sequence CGTGGAAG, the binding signal is -0.14 E-score.

For CGTCGATC, the binding signal came to 0.0279 E-score.

ATTCCTTA came in with a binding signal of 0.0527 E-score.

TGCGAAAA had a binding signal of -0.119 E-score.

As to GAAAAACC, the binding signal is 0.0262 E-score.

Take ACTCCTGA: the binding signal is -0.0592 E-score.

Sequence CCTCAAGC had a binding signal of -0.145 E-score.

As to ACGATATC, the binding signal is 0.188 E-score.

In turn, CAAGTCTA came in with a binding signal of -0.201 E-score.

For AAGGCACA, the binding signal is -0.257 E-score.

On to CGACAACG, for which the binding signal is -0.231 E-score.

For the sequence CGGTTAAG, the binding signal was determined as 0.0266 E-score.

In turn, ACGTGGCA yielded a binding signal of -0.0377 E-score.

CGACCTGA yielded a binding signal of -0.0972 E-score.

Consider CTGCTATA, for which the binding signal came to 0.039 E-score.

For GCGGCTAA, the binding signal came out at 0.0233 E-score.

In the case of AGCGCGCA, the binding signal worked out at 0.0348 E-score.

ACTTTCGG: the binding signal is -0.266 E-score.

Turning to GAGGTATA, the binding signal turned out to be 0.243 E-score.

ACAGCAGG: the binding signal was -0.103 E-score.

TAAGGCGA showed a binding signal of -0.0689 E-score.

In turn, AGACCCTA returned a binding signal of -0.133 E-score.

In turn, AAGAGGAA yielded a binding signal of -0.118 E-score.

AGTAAACG returned a binding signal of 0.0727 E-score.

In the case of CGTGGCGA, the binding signal is -0.208 E-score.

In the case of GCGCGTAA, the binding signal was 0.0054 E-score.

ACGCAATA: the binding signal came out at 0.142 E-score.

For ATCTGACC, the binding signal is 0.192 E-score.

In turn, AAGAATTG displayed a binding signal of -0.0756 E-score.

On to AATTCTAT, for which the binding signal stood at 0.286 E-score.

In turn, AACGCACG yielded a binding signal of -0.176 E-score.

ATTATCTG yielded a binding signal of 0.203 E-score.

ACATGTGA returned a binding signal of 0.0923 E-score.

In turn, AATTTTCT yielded a binding signal of 0.209 E-score.

For GACTACGC, the binding signal is 0.00274 E-score.

In turn, GCGCGTAC showed a binding signal of -0.000337 E-score.

Regarding GTGTTGAA, the binding signal is 0.0236 E-score.

On to AACACTGA, for which the binding signal is -0.05 E-score.

Take AGACTAAC: the binding signal is -0.066 E-score.

As for AGCATTAC, the binding signal was 0.0703 E-score.

AACAGTCA showed a binding signal of -0.129 E-score.

On to GGCTCCGA, for which the binding signal is -0.256 E-score.

In the case of CCTTGCCA, the binding signal is -0.118 E-score.

As for ACTGGGCG, the binding signal was -0.273 E-score.

ATGTTTGC displayed a binding signal of -0.0475 E-score.

In turn, ATCTCTGA came in with a binding signal of -0.0745 E-score.

GATGCTAA: the binding signal was -0.0442 E-score.

In the case of CTGGACAG, the binding signal is -0.0421 E-score.

As to TTATCAAA, the binding signal turned out to be 0.147 E-score.

Sequence AGGATGAG gave a binding signal of -0.0429 E-score.

As for ACCCCGGA, the binding signal was -0.137 E-score.

TAGCGCTA returned a binding signal of 0.147 E-score.

In turn, CAATCATG showed a binding signal of 0.062 E-score.

AGATAAAG showed a binding signal of 0.1 E-score.

With CGGATCCA, the binding signal was -0.17 E-score.

For the sequence ATTGGTAC, the binding signal was found to be 0.278 E-score.

As for AAACTCGG, the binding signal was -0.00747 E-score.

For the sequence AGTGCCGA, the binding signal was -0.101 E-score.

Turning to ATCGCGAA, the binding signal is 0.0721 E-score.

In turn, TACGACTA came in with a binding signal of 0.202 E-score.

Consider AAAACCGT, for which the binding signal is -0.149 E-score.

Take AATCTCGC: the binding signal worked out at 0.0361 E-score.

TGCTTAAA gave a binding signal of 0.104 E-score.

Regarding ACCCCGAC, the binding signal was -0.137 E-score.

Turning to GAGCTGGA, the binding signal is -0.0628 E-score.

The sequence CAGGAGCC yielded a binding signal of -0.242 E-score.

CTCAACAG had a binding signal of -0.0121 E-score.

Sequence GCTCGATA registered a binding signal of 0.092 E-score.

As to GAGATCTC, the binding signal came out at 0.0034 E-score.

In the case of CGCCAGCA, the binding signal is -0.0439 E-score.

TACCAGTA showed a binding signal of 0.211 E-score.

Sequence GAGTTTAA gave a binding signal of 0.0511 E-score.

Take GAGGATGA: the binding signal is -0.18 E-score.

For the sequence CGATACAG, the binding signal is -0.103 E-score.

With ACGTGAGT, the binding signal was found to be 0.0117 E-score.

In turn, ATTTCAGG had a binding signal of -0.117 E-score.

TGCGCCCA had a binding signal of -0.209 E-score.

In turn, GGTTAGAC gave a binding signal of -0.127 E-score.

Turning to ACTCCAGA, the binding signal was -0.151 E-score.

Consider TACTAAGA, for which the binding signal was 0.261 E-score.

In turn, TCTCATAA registered a binding signal of -0.125 E-score.

Turning to AAGTCAAA, the binding signal was determined as 0.0182 E-score.

CCCCACCA gave a binding signal of -0.239 E-score.

Sequence GGACGGTA returned a binding signal of 0.0698 E-score.

As for AGTAACCG, the binding signal is -0.0657 E-score.

GATCTGAA: the binding signal is -0.0587 E-score.

GTGCTGTA had a binding signal of 0.108 E-score.

Regarding ATAACAAT, the binding signal came to 0.219 E-score.

Sequence TAAACTTA had a binding signal of 0.126 E-score.

GAAATGAC: the binding signal stood at 0.0247 E-score.

In turn, GTTTGCAA came in with a binding signal of 0.153 E-score.

AGACACCA displayed a binding signal of -0.301 E-score.

Take GATGCGTA: the binding signal stood at 0.000456 E-score.

Consider ATGCCTAC, for which the binding signal was found to be 0.253 E-score.

With ATGAGTGC, the binding signal was -0.0369 E-score.

On to AAAGGCTT, for which the binding signal was -0.103 E-score.

The sequence ACACGGTC showed a binding signal of -0.306 E-score.

For AGTATGTG, the binding signal amounted to 0.214 E-score.

Consider GCTGAGCC, for which the binding signal is -0.0869 E-score.

AGGCTCGG showed a binding signal of -0.224 E-score.

The sequence CGCGAGAC registered a binding signal of -0.0871 E-score.

The sequence CCGAGGGA registered a binding signal of -0.0892 E-score.

Consider GCCGGCTA, for which the binding signal was -0.152 E-score.

The sequence GGGACTCA gave a binding signal of -0.234 E-score.

In the case of ATGGAGAA, the binding signal was -0.0533 E-score.

On to GACCTTTA, for which the binding signal was -0.194 E-score.

The sequence AAACTCTA returned a binding signal of 0.0775 E-score.

Take AGAAGTCG: the binding signal is -0.0318 E-score.

TCAGCTAA displayed a binding signal of 0.0706 E-score.
